Experiment [1] has as its target C. elegans iPGM (Caenorhabditis elegans, UniProt G5EFZ1). The experiment in a line: PGM enzyme assay (enolase–pyruvate kinase coupled, Kinase-Glo Plus end point) and IC50 determination. It counts as biochemical. Particulars: Ce iPGM Ave IC50 (M), 5 nM enzyme.
Experiment [2] deals with B. malayi iPGM (Brugia malayi, UniProt Q4VWF8). Kind of experiment: biochemical. As to conditions: Bm iPGM Ave IC50 (M), 5 nM enzyme.
For experiment [3], the target named is O. volvulus iPGM (Onchocerca volvulus, UniProt I6LDA6). Kind of experiment: biochemical. As to conditions: Ov iPGM Ave IC50 (M), 5 nM enzyme.
The mark [4] stands for this setting: Supplementary Table 4a, Ce-2 analogs, average of N=2-3 independent experiments.
The mark [5] stands for this setting: Supplementary Table 4b, Ce-2d analogs.

Bridge positions count the residues as written; N and C are the ends. Square brackets hold non-standard residues; d marks the D form. Peptide text beside a SMILES is read from it. Phe(4-F) = N[C@@H](Cc1ccc(F)cc1)C(=O)O; Abu = CC[C@H](N)C(=O)O

Chain of UniProt I6LDA6 (I6LDA6 whole entry): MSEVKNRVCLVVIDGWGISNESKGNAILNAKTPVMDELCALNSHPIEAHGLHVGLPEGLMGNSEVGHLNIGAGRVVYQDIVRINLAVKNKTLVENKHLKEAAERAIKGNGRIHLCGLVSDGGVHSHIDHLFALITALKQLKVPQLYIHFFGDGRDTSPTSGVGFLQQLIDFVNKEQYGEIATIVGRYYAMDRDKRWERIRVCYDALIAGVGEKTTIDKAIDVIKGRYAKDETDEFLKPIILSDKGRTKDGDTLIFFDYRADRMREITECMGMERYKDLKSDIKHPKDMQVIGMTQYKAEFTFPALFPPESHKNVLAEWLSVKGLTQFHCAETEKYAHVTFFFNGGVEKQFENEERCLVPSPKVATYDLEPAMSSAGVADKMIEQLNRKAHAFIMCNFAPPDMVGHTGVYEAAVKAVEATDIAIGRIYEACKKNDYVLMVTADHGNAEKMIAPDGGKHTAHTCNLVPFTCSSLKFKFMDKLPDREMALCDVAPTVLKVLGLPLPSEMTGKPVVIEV
Chain of UniProt Q4VWF8 (Q4VWF8 whole entry): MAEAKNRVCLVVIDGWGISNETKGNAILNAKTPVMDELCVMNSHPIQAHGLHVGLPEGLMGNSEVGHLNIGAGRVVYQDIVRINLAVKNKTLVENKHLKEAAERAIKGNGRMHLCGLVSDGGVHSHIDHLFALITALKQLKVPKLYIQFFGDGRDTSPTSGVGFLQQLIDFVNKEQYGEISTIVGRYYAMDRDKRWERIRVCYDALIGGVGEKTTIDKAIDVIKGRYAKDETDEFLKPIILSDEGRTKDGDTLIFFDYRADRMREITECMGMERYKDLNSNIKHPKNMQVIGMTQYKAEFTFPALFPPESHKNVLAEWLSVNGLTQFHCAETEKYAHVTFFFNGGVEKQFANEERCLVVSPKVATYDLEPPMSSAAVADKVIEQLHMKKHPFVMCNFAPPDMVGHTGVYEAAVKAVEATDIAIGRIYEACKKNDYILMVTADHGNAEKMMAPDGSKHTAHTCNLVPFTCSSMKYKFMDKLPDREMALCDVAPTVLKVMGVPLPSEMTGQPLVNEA

`CC(C)C[C@H](NC(=O)[C@H](Cc1ccc(F)cc1)NC(=O)[C@@H]1CSCC(=O)N[C@H](Cc2ccc(O)cc2)C(=O)N[C@@H](CC(=O)O)C(=O)N[C@@H](Cc2ccc(O)cc2)C(=O)N2CCC[C@H]2C(=O)NCC(=O)N[C@@H](CC(=O)O)C(=O)N[C@@H](Cc2ccc(O)cc2)C(=O)N1)C(=O)N[C@@H](Cc1ccc(O)cc1)C(=O)NCC(=O)N[C@H](C(=O)N[C@@H](CS)C(N)=O)[C@@H](C)O` [Ce-2 Y9(4F)F] ({CH2CO}-[dY]DYPGDYC[Phe(4-F)]LYGTC-NH2; thioether N-8): the IC50 in experiment [1] (setting [4]) is 1.79e-09 M; in experiment [2] (setting [4]), 3.31e-09 M; in experiment [3] (setting [4]), 3.84e-09 M.

As to `CC(C)C[C@H](NC(=O)[C@H](Cc1ccc(O)cc1)NC(=O)[C@@H]1CSCC(=O)N[C@H](Cc2ccc(O)cc2)C(=O)N[C@@H](C(C)C)C(=O)N[C@@H](Cc2ccc(O)cc2)C(=O)N2CCC[C@H]2C(=O)NCC(=O)N[C@@H](CC(=O)O)C(=O)N[C@@H](Cc2ccc(O)cc2)C(=O)N1)C(=O)N[C@@H](Cc1ccc(O)cc1)C(N)=O` [Ce-2d D2V], the concentration for half-maximal inhibition (IC50) in experiment [1] (setting [5]) was found to be 6.61e-08 M; in experiment [2] (setting [5]) it was 4.55e-07 M; in experiment [3] (setting [5]) it was 1.29e-06 M.

In the case of `CC(C)C[C@H](NC(=O)[C@H](Cc1ccc(F)cc1)NC(=O)[C@@H]1CSCC(=O)N[C@H](Cc2ccc(O)cc2)C(=O)N[C@@H](CC(=O)O)C(=O)N[C@@H](Cc2ccc(O)cc2)C(=O)N2CCC[C@H]2C(=O)NCC(=O)N[C@@H](CC(=O)O)C(=O)N[C@@H](Cc2ccc(O)cc2)C(=O)N1)C(=O)N[C@@H](Cc1ccc(O)cc1)C(N)=O` [Ce-2d Y9(4F)F], the IC50 was determined as 3.8e-08 M in experiment [1] (setting [5]), 2.33e-07 M in experiment [2] (setting [5]) and 7.64e-07 M in experiment [3] (setting [5]).

On to `CC(C)C[C@H](NC(=O)[C@H](Cc1ccc(O)cc1)NC(=O)[C@@H]1CSCC(=O)N[C@H](Cc2ccc(O)cc2)C(=O)N[C@@H](CC(=O)O)C(=O)N[C@@H](Cc2ccc(O)cc2)C(=O)N2CCC[C@H]2C(=O)NCC(=O)N[C@@H](CC(=O)O)C(=O)N[C@@H](Cc2ccc(O)cc2)C(=O)N1)C(=O)N[C@@H](Cc1ccc(O)cc1)C(=O)NCC(=O)NCC(=O)N[C@@H](Cc1c[nH]cn1)C(N)=O` [Ce-2 T13G, C14H], for which the IC50 turned out to be 6.84e-09 M in experiment [1] (setting [4]), 6.96e-08 M in experiment [2] (setting [4]) and 1.17e-07 M in experiment [3] (setting [4]).

For `CC(C)C[C@H](NC(=O)[C@H](Cc1ccc(O)cc1)NC(=O)[C@@H]1CSCC(=O)N[C@H](Cc2ccc(F)cc2)C(=O)N[C@@H](CC(=O)O)C(=O)N[C@@H](Cc2ccc(O)cc2)C(=O)N2CCC[C@H]2C(=O)NCC(=O)N[C@@H](CC(=O)O)C(=O)N[C@@H](Cc2ccc(O)cc2)C(=O)N1)C(=O)N[C@@H](Cc1ccc(O)cc1)C(N)=O` [Ce-2d Y1D(4F)F], the results for the half-maximal inhibitory concentration (IC50) in experiment [1] (setting [5]), in experiment [2] (setting [5]) and in experiment [3] (setting [5]) were 2.9e-09 M, 2.37e-08 M and 6.39e-08 M, respectively.

In the case of `CC[C@@H]1NC(=O)[C@@H](Cc2ccc(O)cc2)NC(=O)CSC[C@@H](C(=O)N[C@@H](Cc2ccc(O)cc2)C(=O)N[C@@H](CC(C)C)C(=O)N[C@@H](Cc2ccc(O)cc2)C(=O)NCC(=O)N[C@H](C(=O)N[C@@H](CS)C(N)=O)[C@@H](C)O)NC(=O)[C@H](Cc2ccc(O)cc2)NC(=O)[C@H](CC(=O)O)NC(=O)CNC(=O)[C@@H]2CCCN2C(=O)[C@H](Cc2ccc(O)cc2)NC1=O` [Ce-2 D2Abu] ({CH2CO}-[dY][Abu]YPGDYCYLYGTC-NH2; thioether N-8), the results for the concentration for half-maximal inhibition (IC50) in experiment [1] (setting [4]), in experiment [2] (setting [4]) and in experiment [3] (setting [4]) were 1.85e-09 M, 1.37e-09 M and 2.24e-09 M, respectively.

With `CC(C)C[C@H](NC(=O)[C@H](Cc1ccc(O)cc1)NC(=O)[C@@H]1CSCC(=O)N[C@H](Cc2ccc(O)cc2)C(=O)N[C@@H](CC(=O)O)C(=O)N[C@@H](Cc2ccccc2)C(=O)N2CCC[C@H]2C(=O)NCC(=O)N[C@@H](CC(=O)O)C(=O)N[C@@H](Cc2ccc(O)cc2)C(=O)N1)C(=O)N[C@@H](Cc1ccc(O)cc1)C(N)=O` [Ce-2d Y3F], the results for the IC50 in experiment [1] (setting [5]), in experiment [2] (setting [5]) and in experiment [3] (setting [5]) were 4.42e-07 M, 3.8e-06 M and 1.22e-05 M, respectively.

In the case of `CC(C)C[C@H](NC(=O)[C@H](Cc1ccc(O)cc1)NC(=O)[C@@H]1CSCC(=O)N[C@H](Cc2ccc(O)cc2)C(=O)N[C@@H](CC(=O)O)C(=O)N[C@@H](Cc2ccc(O)cc2)C(=O)N2CCC[C@H]2C(=O)NCC(=O)N[C@@H](CC(=O)O)C(=O)N[C@@H](CO)C(=O)N1)C(=O)N[C@@H](Cc1ccc(O)cc1)C(N)=O` [Ce-2d Y7S], the IC50 turned out to be 1.62e-08 M in experiment [1] (setting [5]), 9.5e-08 M in experiment [2] (setting [5]) and 4.21e-07 M in experiment [3] (setting [5]).

`CC(C)C[C@H](NC(=O)[C@H](Cc1ccc(O)cc1)NC(=O)[C@@H]1CSCC(=O)N[C@H](Cc2ccc(O)cc2)C(=O)N[C@@H](CC(=O)O)C(=O)N[C@@H](Cc2ccc(O)cc2)C(=O)N2CCC[C@H]2C(=O)NCC(=O)N[C@@H](CC(=O)O)C(=O)N[C@@H](Cc2ccc(O)cc2)C(=O)N1)C(=O)N[C@@H](Cc1ccc(O)cc1)C(=O)NCC(=O)NCC(=O)N[C@@H](CS)C(N)=O` [Ce-2 T13G]: the values for the IC50 in experiment [1] (setting [4]), in experiment [2] (setting [4]) and in experiment [3] (setting [4]) were 1.49e-09 M, 8.11e-10 M and 1.61e-09 M, respectively.

As for `CC(C)C[C@H](NC(=O)[C@H](Cc1ccc(O)cc1)NC(=O)[C@@H]1CSCC(=O)N[C@H](Cc2ccc(O)cc2)C(=O)N[C@@H](CC(=O)O)C(=O)N[C@@H](Cc2ccc(O)cc2)C(=O)N2CCC[C@H]2C(=O)NCC(=O)N[C@@H](CC(=O)O)C(=O)N[C@@H](Cc2ccc(O)cc2)C(=O)N1)C(=O)N[C@@H](Cc1ccc(O)cc1)C(=O)NCC(=O)N[C@H](C(=O)N[C@@H](CS)C(N)=O)[C@@H](C)O` [Ce-2], the IC50 in experiment [1] (setting [4]) came out at 8.89e-10 M; in experiment [2] (setting [4]) it was 7.72e-10 M; in experiment [3] (setting [4]) it was 1.24e-09 M.

`CC(C)C[C@H](NC(=O)[C@H](Cc1ccc(O)cc1)NC(=O)[C@@H]1CSCC(=O)N[C@H](Cc2ccc(O)cc2)C(=O)N[C@@H](CCC(=O)O)C(=O)N[C@@H](Cc2ccc(O)cc2)C(=O)N2CCC[C@H]2C(=O)NCC(=O)N[C@@H](CC(=O)O)C(=O)N[C@@H](Cc2ccc(O)cc2)C(=O)N1)C(=O)N[C@@H](Cc1ccc(O)cc1)C(N)=O` [Ce-2d D2E]: the IC50 in experiment [1] (setting [5]) was 9.62e-09 M; in experiment [2] (setting [5]), 7.03e-08 M; in experiment [3] (setting [5]), 2.79e-07 M.

For the compound `CC(C)C[C@H](NC(=O)[C@H](Cc1ccc(O)cc1)NC(=O)[C@@H]1CSCC(=O)N[C@H](Cc2ccc(O)cc2)C(=O)N[C@@H](CC(=O)O)C(=O)N[C@@H](Cc2ccc(O)cc2)C(=O)N2CCC[C@H]2C(=O)NCC(=O)N[C@@H](CC(=O)O)C(=O)N[C@@H](Cc2c[nH]cn2)C(=O)N1)C(=O)N[C@@H](Cc1ccc(O)cc1)C(=O)NCC(=O)N[C@H](C(=O)NO)[C@@H](C)O` [Ce-1 NHOH], the results for the IC50 in experiment [1] (setting [4]), in experiment [2] (setting [4]) and in experiment [3] (setting [4]) were 2.05e-09 M, 4.73e-09 M and 3.97e-09 M, respectively.

`CC[C@H](C)[C@H](NC(=O)[C@H](Cc1ccc(O)cc1)NC(=O)[C@@H]1CSCC(=O)N[C@H](Cc2ccc(O)cc2)C(=O)N[C@@H](CC(=O)O)C(=O)N[C@@H](Cc2ccc(O)cc2)C(=O)N2CCC[C@H]2C(=O)NCC(=O)N[C@@H](CC(=O)O)C(=O)N[C@@H](Cc2ccc(O)cc2)C(=O)N1)C(=O)N[C@@H](Cc1ccc(O)cc1)C(N)=O` [Ce-2d L10I]: the IC50 in experiment [1] (setting [5]) was 2.67e-08 M; in experiment [2] (setting [5]), 3.74e-07 M; in experiment [3] (setting [5]) it was 1.32e-06 M.

For the compound `CC(C)C[C@H](NC(=O)[C@H](Cc1ccc(O)cc1)NC(=O)[C@@H]1CSCC(=O)N[C@H](Cc2ccc(O)cc2)C(=O)N[C@@H](CC(=O)O)C(=O)N[C@@H](Cc2ccc(F)cc2)C(=O)N2CCC[C@H]2C(=O)NCC(=O)N[C@@H](CC(=O)O)C(=O)N[C@@H](Cc2ccc(O)cc2)C(=O)N1)C(=O)N[C@@H](Cc1ccc(O)cc1)C(=O)NCC(=O)N[C@H](C(=O)N[C@@H](CS)C(N)=O)[C@@H](C)O` [Ce-2 Y3(4F)F] ({CH2CO}-[dY]D[Phe(4-F)]PGDYCYLYGTC-NH2; thioether N-8), the figures for the IC50 in experiment [1] (setting [4]), in experiment [2] (setting [4]) and in experiment [3] (setting [4]) were 1.56e-09 M, 1.4e-09 M and 2.1e-09 M, respectively.

`CC(C)C[C@H](NC(=O)[C@H](Cc1ccc(O)cc1)NC(=O)[C@@H]1CSCC(=O)N[C@H](Cc2ccc(O)cc2)C(=O)N[C@@H](CCC(N)=O)C(=O)N[C@@H](Cc2ccc(O)cc2)C(=O)N2CCC[C@H]2C(=O)NCC(=O)N[C@@H](CC(=O)O)C(=O)N[C@@H](Cc2ccc(O)cc2)C(=O)N1)C(=O)N[C@@H](Cc1ccc(O)cc1)C(N)=O` [Ce-2d D2Q]: the results for the IC50 in experiment [1] (setting [5]), in experiment [2] (setting [5]) and in experiment [3] (setting [5]) were 2.27e-08 M, 2.77e-07 M and 8.14e-07 M, respectively.

The record behind these values is article PMC8113725, “Structure–activity relationship of ipglycermide binding to phosphoglycerate mutases” (The Journal of Biological Chemistry, 2021).
